Test results from the supplement of paper PMC11417369.
± gives the standard deviation of the averaged measurements. This is one part of the list.

Tested on: PfAP2-G AP2 domain (GST-tagged)
Assay: gcPBM binding intensity (ln(normalized median fluorescence intensity)); higher = stronger DNA binding
In short: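 Binding of GST-tagged P. falciparum DNA-binding domains, expressed in E. coli and used at about 25 μg on average, was carried out for 1 h in 1× PBS containing 1% milk, 0.2 mg/ml BSA, 0.5% salmon testes DNA and 0.03% Triton X-100. The target was an Agilent 4 × 180k array of primer-extended double-stranded 36-bp intergenic genomic probes plus negative controls, read with Alexa488 anti-GST antibody at 488 nm. Binding intensity is the highest Masliner-normalised natural-log median intensity across replicate spots of either probe orientation.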

Sequence	gcPBM binding intensity (ln)
TTATGGTTATACATATGTACATATATATATATATAT [XGTACX_site1494]	11.4 ± 0.92
ATAAAATTTATATAAGCACACAAATATATATTTATA [CACACA_site9083]	9.95 ± 0.014
ATATATTTAATTTATGGTACACATAATTTTTTTAGA [XGTACX_site848]	11.2 ± 0.79
ATATTATATAAATATACACACATTGTTTTATAGCAT [CACACA_site2386]	10.02 ± 0.035
AAAAAAAAATACATATGTACATATACATATATATAT [XGTACX_site2975]	11 ± 0.58
CACAAAAGTAAGCACGCACACACAACCTGAAATAAA [CACACA_site166]	10.3 ± 0.24
TTAAAAAAAAGACACACACACATACACATATTTATA [CACACA_site7535]	10.2 ± 0.18
TATATATATATATATACACACATATATATAAATATA [CACACA_site2035]	10 ± 0.71
TTAGTCATATATATATGTACACACATATATATATTT [XGTACX_site2948]	11.3 ± 0.9
ATTTTTATATAATGAACACACATATTATATCATTTA [CACACA_site1572]	9.84 ± 0.085
AAAAGAAAATAAGAAACACACAAAAATATGTAAAAA [CACACA_site7694]	9.85 ± 0.2
TTATATATATATATATGTACGAAAAAGAAAAAAAAG [XGTACX_site6761]	11.1 ± 0.76
TATATATATATAATATGTACATATAATCAACATTTT [XGTACX_site3915]	11.2 ± 0.69
AAAATCCACATTTTAGTACACACTTAAAAAATTATT [CACACA_site2955]	11.3 ± 0.86
GAACATACTCAAATAGCACACACATAAATAAAAATG [CACACA_site9283]	10.4 ± 0.42
TTTTCTGTATATTGTGTGCACACAATTAACAAAAAA [GTGCAC_site9817]	10.7 ± 0.47
AAAAAAAAAAAAAATGCACACAATGGCTAGCTGTAC [CACACA_site2273]	11.1 ± 0.46
TGGAGGTCAGTTCACAGTACCCAGGAAATCTACGGA [XGTACX_site1995]	10.9 ± 0.61
ACCCATGATTGTTACAGTACTCTACTTTCTAATATA [XGTACX_site98]	11 ± 0.52

Sequence	gcPBM binding intensity (ln)
AAACTGTCGCTCATAAAGAAGAATGAAATACATTAA [TGCATGCA_negctrl_site60]	10.1 ± 0.34
ATATATGCATATTATACACACATATGTATATACATT [CACACA_site965]	9.995 ± 0.035
ATTTATTTTAATATATGTACATATATTTTTTTATTA [XGTACX_site3389]	11.1 ± 0.68
ATATAATATTACACAAGTACAAAAATTAATACTAAA [XGTACX_site482]	11.1 ± 0.61
CCATAGATATTTTATACACACATATAACATATTAAT [CACACA_site6312]	9.88
ATATTGACAAATATTACACACATATATAAATATGTA [CACACA_site7835]	9.9 ± 0.11
TATATATGTTAAAACGTGCACATATATATATATATA [GTGCAC_site9589]	10.3 ± 0.38
TAGTAATATATATTTTGTACATAAAATAATATATAA [XGTACX_site7971]	10.9 ± 0.59
CGTTATTATCCACATACACACAGGAATAAAAAATTA [CACACA_site2883]	10.3 ± 0.23
ATTTGAAATGCATGAACACACACAGCTATAAATGCA [CACACA_site8229]	9.99
ATAAAATATAAAAAAAGTACAAAAAAAAAAAAAAAA [XGTACX_site6657]	11.2 ± 1.1
TTAATTCTACTTATTACACACATATTAATCAAAAAT [CACACA_site1478]	10.2 ± 0.26
TATATATATATAAACAGTACACAAATTGTAAATAAA [XGTACX_site8268]	11 ± 0.48
GAAATAATTTCATATACACACATATACATACATACA [CACACA_site1358]	10.2 ± 0.16
AAAAGAATATAAAGATACATTGTGATATGGGACAAA [CACACA_negctrl_site405]	10.4 ± 0.28
TATATATATATTGAAGTGCAAAATACTGTACGTAAT	11.6 ± 0.95
AACATAGAAACGTTATGTACATATTGAAGGATATTA [XGTACX_site6015]	11 ± 0.61
AAATATTTATACTATACACACCCAATTTAAAAAAAA [CACACA_site6669]	10.1 ± 0.057
ATTTTTTTATGTACACAAAAAAAAAAAAAAATTTAA [CACACA_negctrl_site1028]	11.6 ± 0.76

Sequence	gcPBM binding intensity (ln)
TATATATATATATATATTGAAATTTATAATAATATT [TGCATGCA_negctrl_site407]	9.88 ± 0.32
TACATAAATTAAAACACACACACACTAAAAAAAAAA [CACACA_site7130]	10.3 ± 0.4
TATTAATTAAACCATACACACATAATTTTTTTATAA [CACACA_site843]	9.83 ± 0.099
ATATTATAATTAAAACGTACGTATTTATGAATTCAT [XGTACX_site1047]	11.3 ± 0.61
GTTAATATTTACTACACACACTTAAAATATGTATAT [CACACA_site4194]	10.08 ± 0.028
TTTTCATTTTTCTTTACACACATATATTTATTTATA [CACACA_site7119]	10.1 ± 0.11
AAATGAGTATTCATATGTACACAAATAAAAAATTAA [XGTACX_site2968]	11.4 ± 0.76
CATTTAAAGGACAAGCTGCACTTACAAAATAAAAAA	10.8 ± 0.76
AATGACAACCTTGTCACACATATATATATATATATA [CACACA_site5977]	10.2 ± 0.33
TTTTTTATTTGACAAGCACACACTTAAATATATATA [CACACA_site3358]	10.2 ± 0.33
ATGGAAGGAAACAATAAAAAAAAAAAAAAATATATA [XGTACX_negctrl_site594]	9.63 ± 0.21
AAATATCAACAAAAATGTACAAATGTAAAAGAATAT [XGTACX_site4676]	10.7 ± 0.3
ATTTCTAGTTTAAGATGTACTTTAATAAAAATTATT [XGTACX_site4820]	11 ± 0.77
ATCTTTGGAAATTTATGTACTTATATTTATATTGTA [XGTACX_site6606]	11.3 ± 0.79
AGGTTAAAAATAAATACACACATTTTATGTCTGTAT [CACACA_site996]	9.96 ± 0.014
ACTATACAGTTATACACACACATATATATATAATAT [CACACA_site310]	10.2 ± 0.035
TTTTTTTTTTAATAAAGTACATATAAATTACCTAAT [XGTACX_site4434]	11.2 ± 0.88
TTTTTTAAACATATTATGTGTATTACATAGTTATGC [XGTACX_negctrl_site596]	9.99 ± 0.23
TACACGCTAAAATACACACACACACCCACATATATA [CACACA_site4153]	10.2 ± 0.29
